Test results published in article PMC12040169 (PLOS Biology, 2025).
The other results are listed elsewhere or left out.

Each compound was assayed on T1, C. trachomatis L2/434/Bu expressing GFP (CTL2-GFP). Details: total inclusion area; 28.5 h, 10 µM; inhibitor.
T1 construct: L2/434/Bu GFP intracellular growth in HeLa cells
Parameters: species or system HeLa; C. trachomatis total inclusion area by high-content imaging, normalised to DMSO
In short: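 Post-fluorescence-read fixation, DNA staining with Hoechst and high-content imaging; GFP inclusion area and number per well, and nuclei counts, used as proxies for bacterial growth and host viability.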

Row | Compound | % of control remaining
1 | O=C1C2(c3ccccc3)CN3CN(C2)CC1(c1ccccc1)C3 [CBK262245] | 78.0488
2 | CS(=O)(=O)NCC1(c2ccccc2)CCN(S(=O)(=O)c2ccc(N3CCOCC3)nc2)CC1 [CBK051634] | 41.7051
3 | COc1ccc(S(=O)(=O)N2CCN(Cc3cc(OC)c(OC)c(OC)c3)CC2)cc1 [CBK263330] | 95.6909
4 | Cn1cccc1C(=O)N[C@H]1C[C@@H]2C(=O)N[C@H]3CCN(C(=O)CC(C)(C)C)[C@@H]3C(=O)N2C1 [CBK289271] | 113.151
5 | CC1=C(C(=O)OCC(=O)c2ccc(C)cc2)C2C=C(Br)C=CC2N=C1c1ccc(C)cc1 (stereo not drawn) [CBK264079] | 105.383
6 | CS(=O)(=O)Nc1cc2cccnc2c(-c2ccccc2)n1 [CBK061928] | 96.3966
7 | COc1cc(CNc2cncc(-c3ccc4c(c3)OCO4)n2)cc(OC)c1OC [CBK065922] | 108.467
8 | CC(Nc1cc(Cl)c(C(F)(F)F)cc1[N+](=O)[O-])c1ccc2[nH]c(=O)[nH]c2c1 (stereo not drawn) [CBK297721] | 83.0664
9 | Cn1c(=O)c2ncn(CC(=O)Nc3cccc(C(=O)O)c3)c2n(C)c1=O [CBK266838] | 104.415
10 | CC(C)(CNC(=O)Cn1cccc(C(=O)NC2CCCCC2)c1=O)c1ccccc1F [CBK286068] | 123.114
11 | COC(=O)c1ccc2c(=O)n(CC3CCCO3)c(SCCO)nc2c1 (stereo not drawn) [CBK306041] | 48.226
12 | Cc1cc(Cl)c(OCCN2CCC(C)CC2)c(Br)c1 [CBK265088G] | 100.566
13 | Nc1cccc(-c2cn(C[C@H]3CC4CCN3C[C@@H]4C(=O)NCc3cccnc3)nn2)c1 (stereo partly drawn) [CBK289088] | 117.374
14 | COc1cccc2[nH]c(C(=O)N3CCOC(c4cccc(-c5c(F)cccc5F)n4)C3)cc12 (stereo not drawn) [CBK285948] | 72.3783
15 | Cc1nc2c(c(=O)[nH]1)CCN(Cc1cn(C(C)C)c3ccccc13)C2 [CBK283991] | 78.0169
16 | CCCCCn1c(-c2ccccc2)n[nH]c1=O [CBK013288] | 81.2199
17 | O=c1c2ccccc2nc2n1CCN(Cc1cccs1)CC2 [CBK284815] | 106.859
18 | CC(C)C(NC(=O)c1cccc(-n2cnnc2)c1)c1cccs1 (stereo not drawn) [CBK282442] | 114.583
19 | CCCCNCCOC1CCC[C@@H]1Cl (stereo partly drawn) [CBK009839] | 72.2113
20 | CC(=O)Nc1cccc(C(=O)NC2CC(=O)N(C3CCCCCC3)C2)c1 (stereo not drawn) [CBK307455] | 53.1924
21 | CC(NC(=O)N1CCN(c2cc(C(F)(F)F)ccn2)CC1)c1ccccc1 (stereo not drawn) [CBK162350] | 102.269
22 | Cc1cc(CN2CCN(C(=O)NCCc3ccccn3)CC2)on1 [CBK305637] | 82.1989
23 | CCCCOc1ccc(Sc2nc(C)cc(C)n2)cc1 [CBK009219] | 67.4176
24 | Oc1n[nH]c(-c2ccccc2Cl)c1Cc1c(Cl)cccc1Cl [CBK107935] | 136.196
25 | Cc1nc(CN2CCCC(NCc3ccc4ccccc4c3)C2)no1 (stereo not drawn) [CBK305160] | 32.5781
26 | O=C(CSc1nnc(-c2ccccc2O)n1-c1ccccc1)Nc1ccc(N2CCOCC2)cc1 [CBK267874] | 88.59

Row | Compound | % of control remaining
27 | Cc1cc(N2CCCC2=O)cc(C)c1S(N)(=O)=O [CBK288458] | 68.431
28 | c1cnc2[nH]c(C3CCCC3)c(CN3CCOCC3)c2c1 [CBK285337] | 87.8016
29 | Cc1c(C(=O)C2=C(O)C(=O)N(Cc3cccnc3)C2c2ccncc2)cnn1-c1ccccc1 (stereo not drawn) [CBK233899] | 108.54
30 | CCN1CCN(C(=O)c2ccc3ccccc3n2)CC1 [CBK200249] | 96.8124
31 | NC(=O)CCC(NC=O)C(=O)O (stereo not drawn) [CBK260967] | 102.216
32 | CC(C)CN1C(=O)COC[C@@H]1[C@H](O)c1ccc(NC(=O)C2CCCCC2)cc1 [CBK289687] | 114.383
33 | N#C/C(=C\c1c[nH]nc1-c1ccccc1)c1nc(-c2cccc([N+](=O)[O-])c2)cs1 [CBK267252] | 117.67
34 | O=C(NC1CCS(=O)(=O)C1)c1cnc2c(Cl)cccc2c1O (stereo not drawn) [CBK304644] | 83.0045
35 | CCCNC(c1ccccc1)c1ccncc1 (stereo not drawn) [CBK028505] | 59.1009
36 | Cc1cc2c(s1)c1cnn(CC(=O)OC(C)C)c(=O)c1n2C [CBK284247] | 67.114
37 | CC(C(=O)N[C@H]1C2CCCCC2[C@@H]1c1ccccc1)N1CCOCC1 (stereo partly drawn) [CBK282964] | 106.825
38 | CN(Cc1cccc(C#N)c1)Cc1nc2c(cnn2C)c(=O)[nH]1 [CBK305973] | 18.9094
39 | CN(CC1(C)COC1)C(=O)C(c1ccc(F)cc1)N(C)C (stereo not drawn) [CBK281722] | 102.298
40 | COc1ccccc1NC(=O)C1C2NC(=S)NC1(C)Oc1c(OC)cccc12 (stereo not drawn) [CBK269013] | 105.239
41 | CSc1cc(-c2cccs2)[nH]c(=O)c1C#N [CBK006350] | 63.312
42 | O=C(NCC1CCCCC1)C1(Cc2ccc(-c3ccncc3)cc2)CCOCC1 [CBK285564] | 101.005
43 | COc1ccc(N(Cc2cccnc2)C(=O)c2ccc(-c3ccccc3)[nH]c2=O)cc1 [CBK283089] | 87.4153
44 | COc1ccc(C(C)C)cc1-c1nccnc1NCC1COC(C)(C)O1 (stereo not drawn) [CBK036930] | 110.091
45 | CN1CCN(S(=O)(=O)c2cccc3nsnc23)CC1 [CBK062428] | 88.3905
46 | NNC(=O)COc1ccc2ccccc2c1 [CBK261208] | 105.431
47 | Cc1csc(NC(=O)c2cc(S(=O)(=O)N3CCCC3)cn2C)n1 [CBK295617] | 103.683
48 | Nc1nc(C2COc3ccccc3O2)ncc1S(=O)(=O)c1ccc(Cl)cc1 (stereo not drawn) [CBK074808] | 75.4366
49 | COc1ccc(Cn2nc(NC(=O)c3cn(C)c4ccccc34)c3ccccc32)cc1 [CBK048344] | 89.4758
50 | COC(=O)c1sccc1NC(=O)/C=C/c1ccccc1 [CBK057041] | 123.592
51 | CC(C)Cc1ccc(S(=O)(=O)Nc2ccc(C(=O)O)cc2)cc1 [CBK297930] | 51.7537
